# Among all 220,000 compounds or so, about 5,700 (2.6%) were called active. This list was built around the results that the source calls inconclusive (neither active nor inactive); the mix of calls is not that of the screen. The call rests on the fitted dose curve; in most records, active means well fitted inhibition curve with a large enough effect; inconclusive means small, poorly fitted or top-dose-only effect; inactive means no such curve, though single readings can be large or run the other way. A potency beside an inconclusive call is a rough fit, not a confirmed value.
# Target: Lysine-specific demethylase 5B (Homo sapiens) (UniProt Q9UGL1)
# Assay: Primary screen for KDM5B Histone Demethylases FDH-coupled qHTS; further: nearly all actives have a fitted effect of over 70% in size; on activity change, negative = inhibition: 0% is about no effect
# Settings: FDH-coupled NADH fluorescence (FDH is formaldehyde dehydrogenase); activity change, negative = inhibition: at 57.7 µM (top of the series) unless noted
# How it was run: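 Inhibition is measured as reduced NADH fluorescence generation from FDH coupling to formaldehyde release. Truncated KDM5BΔAP at 200 nM final acts on H3K4me3 peptide (12.5 µM in substrate mix) in pH 7.5 HEPES buffer with Tween-20, 30 min, room temperature.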
# Potency means the concentration at half of the fitted maximal effect; tags describe the fitted curve by direction and shape.
# Chain of UniProt Q9UGL1 (Q9UGL1 whole entry, looked up): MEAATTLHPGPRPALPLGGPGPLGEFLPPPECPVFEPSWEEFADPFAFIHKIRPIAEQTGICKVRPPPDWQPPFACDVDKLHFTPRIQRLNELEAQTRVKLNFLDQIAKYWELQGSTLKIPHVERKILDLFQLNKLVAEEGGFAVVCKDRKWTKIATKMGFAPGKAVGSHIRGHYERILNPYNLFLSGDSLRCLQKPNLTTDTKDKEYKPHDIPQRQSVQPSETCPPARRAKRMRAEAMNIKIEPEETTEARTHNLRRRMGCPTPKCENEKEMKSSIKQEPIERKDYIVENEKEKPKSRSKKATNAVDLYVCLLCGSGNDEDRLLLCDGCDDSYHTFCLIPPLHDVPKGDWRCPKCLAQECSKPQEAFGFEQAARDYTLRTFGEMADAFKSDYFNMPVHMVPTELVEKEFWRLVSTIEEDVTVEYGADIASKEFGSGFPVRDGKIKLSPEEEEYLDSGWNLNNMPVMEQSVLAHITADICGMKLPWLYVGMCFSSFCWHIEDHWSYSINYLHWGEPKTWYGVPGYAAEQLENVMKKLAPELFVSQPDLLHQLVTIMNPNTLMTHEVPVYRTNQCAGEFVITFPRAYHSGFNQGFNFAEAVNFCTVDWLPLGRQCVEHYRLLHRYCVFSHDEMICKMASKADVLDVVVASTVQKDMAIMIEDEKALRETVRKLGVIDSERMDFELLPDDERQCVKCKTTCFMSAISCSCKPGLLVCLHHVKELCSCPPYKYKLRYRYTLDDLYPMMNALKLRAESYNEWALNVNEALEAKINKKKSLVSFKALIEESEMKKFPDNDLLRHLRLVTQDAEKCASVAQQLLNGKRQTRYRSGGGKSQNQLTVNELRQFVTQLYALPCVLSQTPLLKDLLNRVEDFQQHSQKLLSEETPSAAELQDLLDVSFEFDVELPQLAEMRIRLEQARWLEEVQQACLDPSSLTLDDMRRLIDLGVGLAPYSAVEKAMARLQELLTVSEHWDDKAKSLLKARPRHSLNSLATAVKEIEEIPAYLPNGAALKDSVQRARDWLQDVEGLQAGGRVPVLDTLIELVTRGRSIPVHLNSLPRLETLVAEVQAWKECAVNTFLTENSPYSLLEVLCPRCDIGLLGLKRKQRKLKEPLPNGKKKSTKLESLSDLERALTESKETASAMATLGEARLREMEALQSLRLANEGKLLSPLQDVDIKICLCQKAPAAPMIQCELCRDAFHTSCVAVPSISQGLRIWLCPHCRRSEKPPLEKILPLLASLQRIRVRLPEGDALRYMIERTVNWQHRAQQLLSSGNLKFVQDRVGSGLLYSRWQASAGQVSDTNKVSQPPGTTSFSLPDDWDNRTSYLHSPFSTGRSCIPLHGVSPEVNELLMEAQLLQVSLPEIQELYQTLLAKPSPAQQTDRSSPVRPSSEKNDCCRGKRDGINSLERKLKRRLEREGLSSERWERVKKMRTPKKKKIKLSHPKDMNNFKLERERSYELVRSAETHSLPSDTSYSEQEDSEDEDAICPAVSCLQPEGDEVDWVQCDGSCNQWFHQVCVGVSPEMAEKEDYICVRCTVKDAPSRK
Compound,Potency,"activity change, negative = inhibition"
CN(C)C[C@@H]1CN(Cc2ccccc2)C[C@H]1NC(=O)c1cnco1,inactive,
O=c1oc2cc(OCCN3CCN(CCO)CC3)ccc2cc1-c1ccccc1,"inconclusive: 25.1 µM [inhibitor, partial curve, poor fit]",
Cc1c(C)n(Cc2ccccc2)c2ccc(C(=O)NCCc3ccccc3Cl)cc12,"inconclusive: 17.8 µM [inhibitor, partial curve, poor fit]",
CC(=O)NCC(=O)N1Cc2ccccc2CC2(CCCCN2CC2CCCC2)C1 (stereo unspecified),"inconclusive: 56.2 µM [inhibitor, partial curve, poor fit]",
COc1ccc(CNC(=O)CSCc2nc(-c3ccc(OC)c(OC)c3)oc2C)cc1,"inconclusive: 28.2 µM [inhibitor, single point]",
Cc1ccc(NC(=O)Nc2ccc(C)n(CC(=O)Nc3ccc(C)cc3C)c2=O)cc1,inactive,
O=C(Nc1ccccc1)N1CCn2c(nn(-c3ccc(C(F)(F)F)cc3)c2=O)C1,inactive,
CCc1nc2c(c(-c3ccc(O)cc3)n1)CN(Cc1ccc(F)cc1)CC2,"inconclusive: 22.4 µM [inhibitor, partial curve]",
COc1ccc(CC(=O)N2CCc3c(nc4cc(-c5ccccc5Cl)[nH]n4c3=O)C2)cc1,"inconclusive: 17.8 µM [inhibitor, single point]",
CC(=O)N1c2ccccc2C(=O)C1N1CCN(c2ccc(F)cc2)CC1 (stereo unspecified),"inconclusive: 25.1 µM [inhibitor, single point]",
CC(C)c1ccc(-n2ccnc(NCc3ccc4c(c3)OCO4)c2=O)cc1,"inconclusive: 25.1 µM [inhibitor, single point]",
Cc1nn(-c2ccc(=O)[nH]n2)c2c1C(c1ccc(-c3ccc(F)cc3)o1)CC(=O)N2 (stereo unspecified),"inconclusive: 31.6 µM [inhibitor, single point]",
CCN(CC)C(=O)Cn1c(SCCOc2ccc(Cl)cc2)nc2ccccc21,"inconclusive: 17.8 µM [inhibitor, partial curve, poor fit]",
CCC(=O)Nc1c(C)cc(C)cc1C,inactive,
Cc1ccccc1OCc1ccc(-c2nc(C#N)c(N3CCN(C)CC3)o2)o1,"inconclusive: 31.6 µM [inhibitor, partial curve, poor fit]",
COc1ccc(-c2cc3c(=O)n(CCNC(=O)c4ccc(F)cc4)ccn3n2)cc1,"inconclusive: 35.5 µM [inhibitor, partial curve, poor fit]",
O=C(c1ccc(Cl)cc1)N1CCC(n2cc(-c3cccnc3)[nH]c2=O)CC1,"inconclusive: 50.1 µM [inhibitor, partial curve, poor fit]",
CC1=C(C(=O)OCC(C)C)C(c2ccc(OCc3ccccc3)cc2)N2C(=O)CCSC2=N1 (stereo unspecified),"inconclusive: 15.8 µM [inhibitor, partial curve, poor fit]",
COc1ccc(C(=O)Nc2cccc3cccnc23)cc1Cl,"inconclusive: 35.5 µM [inhibitor, single point]",
CC(C)(C)OC(=O)NCCCCCc1nnc(SCc2ccccc2)o1,inactive,
CCC(C(=O)N1CCN(c2ccccc2F)CC1)n1nc(C)c2sc3ccccc3c2c1=O (stereo unspecified),"inconclusive: 44.7 µM [inhibitor, single point]",
COc1ccc(NC(=O)CCn2nc(-c3ccccc3OC)c3c(C)cc(C)nc32)cc1,"inconclusive: 28.2 µM [inhibitor, partial curve, poor fit]",

Compound,Potency,"activity change, negative = inhibition"
CC(=O)COC(=O)c1cc2ccccc2[nH]1,"inconclusive: 28.2 µM [inhibitor, single point]",
COc1ccccc1-c1cc(C(=O)O)c2ccc(C)c(C)c2n1,"inconclusive: 20 µM [inhibitor, partial curve, poor fit]",
CC1(C)Cc2cccc(C(=O)NCc3ccco3)c2O1,"inconclusive: 28.2 µM [inhibitor, single point]",
COc1ccccc1CNC(=O)[C@@H]1Cc2c[nH]c3cccc(c23)[C@H](CC(C)C)N1,inactive,
CC(C)C(=O)Nc1ccc2oc(-c3ccncc3)nc2c1,"inconclusive: 28.2 µM [inhibitor, partial curve, poor fit]",
CCOc1cc(/C=C/C(=O)O)ccc1OCc1ccc2ccccc2c1,inactive,
COCC1CN(C2CCC2)CC12CCN(C(=O)c1cccs1)CC2 (stereo unspecified),"inconclusive: 20 µM [inhibitor, single point]",
Cc1ccc(C)n1-c1c(C(=O)NCCCN2CCN(c3ccc(F)cc3)CC2)sc2ncccc12,"inconclusive: 35.5 µM [inhibitor, partial curve, poor fit]",
COc1ccc(C(=O)Nc2ccc3oc(C)nc3c2)c(O)c1,"inconclusive: 25.1 µM [inhibitor, partial curve, poor fit]",
Cc1cn2nc(C(=O)N3CCC(C(=O)Nc4ccccc4)CC3)cc2c(=O)[nH]1,"inconclusive: 14.1 µM [inhibitor, partial curve, poor fit]",
CC(=O)N1CCN(C(=O)c2cc(-c3ccc(C)o3)nc3ccccc23)CC1,"inconclusive: 28.2 µM [inhibitor, partial curve, poor fit]",
Cc1ccc(C(=O)NCc2nnc3c(-c4nc(C5CC5)no4)cccn23)cc1C,active: 10 µM,
COc1ccc(OC2CCN(C(C)=O)CC2)c(C(=O)NCCc2ccccc2OC)c1,active: 25.1 µM,
Cc1nc2cccc(C(=O)Oc3ccc(Cl)cc3)c2o1,"inconclusive: 25.1 µM [inhibitor, partial curve, poor fit]",
Cc1noc(C)c1CO[C@@H]1COCC[C@H]1NC(=O)c1cccc(=O)[nH]1,active: 17.8 µM,
CCCCCn1nc(C(=O)N(C)Cc2ccccc2Cl)c2ccccc2c1=O,inactive,
Cc1cc(C[C@@H]2COC[C@@H]2NC(=O)Cc2c(C)[nH]c3ccccc23)on1,inactive,
CC(C)C[C@@H]1N[C@H](C(=O)NCCOc2ccccc2)Cc2c[nH]c3cccc1c23,inactive,
Cc1cc(NC(=O)CSc2nc3c([nH]c4ccccc43)c(=O)n2-c2ccccc2)no1,"inconclusive: 28.2 µM [inhibitor, single point]",
COc1cccc(-c2cc3c(=O)n(CCNC(=O)c4ccc(C(C)(C)C)cc4)ccn3n2)c1,active: 25.1 µM,
CCc1ccc(NC(=O)CSc2nccn2-c2cccc(C)c2C)cc1,"inconclusive: 2.51 µM [inhibitor, full curve, poor fit]",
COc1ccc(Cc2nnc(Nc3ccccc3)[nH]c2=O)cc1OC,inactive,

Compound,Potency,"activity change, negative = inhibition"
O=C(Cn1ccn2nc(-c3ccccc3)c(CO)c2c1=O)Nc1ccc2c(c1)OCCO2,"inconclusive: 17.8 µM [inhibitor, single point]",
Cc1ccc(-c2csc(/C=C/c3cccc(C(F)(F)F)c3)n2)cc1,"inconclusive: 12.6 µM [inhibitor, partial curve, poor fit]",
COCCOCCCNC(=O)CCNC(=O)c1ccc(C(C)(C)C)cc1,inactive,
Cc1cncnc1C1CCN(c2cc(C3CC(N)C3)ncn2)CC1 (stereo unspecified),"inconclusive: 28.2 µM [inhibitor, partial curve, poor fit]",
CC(C)NC(=O)c1nc(-c2ccsc2)c2ccccn12,active: 112 µM,
CCOC(=O)C(=O)N1CCN(c2nc(-c3ccccc3)c3c(c2C#N)CCCC3)CC1,"inconclusive: 35.5 µM [inhibitor, partial curve, poor fit]",
Cc1ccccc1CN1CCC(CN(Cc2cccnc2)C(=O)C2CC=CCC2)CC1 (stereo unspecified),inactive,
COc1ccc(-c2cc(C(F)(F)F)nc(S(=O)(=O)CCC(=O)Nc3ccccc3)n2)cc1,inactive,
COc1ccc(NC(=O)CCc2ncc(-c3ccccc3F)o2)cc1Cl,inactive,
Cc1ccc(F)c(Nc2ncnc3c2oc2ccccc23)c1,"inconclusive: 39.8 µM [inhibitor, single point]",
COc1ccc(-c2cn3nc(N4CCC(C(=O)Nc5cccc(OC)c5)CC4)sc3n2)cc1,"inconclusive: 2.82 µM [inhibitor, partial curve, poor fit]",
CCCCCCNC(=O)C(C#N)c1nc2ccccc2nc1N(CC)CC (stereo unspecified),inactive,
COc1cccc(C(=O)NCc2nnc3cc(-c4nc(C)no4)ccn23)c1,active: 28.2 µM,
CCCCOc1ccc(C(=O)NCCc2sc(-c3cccc(F)c3)nc2C)cc1,"inconclusive: 35.5 µM [inhibitor, partial curve, poor fit]",
O=C(Nc1ccc(NC(=O)c2cccs2)cc1)c1cccc(Br)c1,"inconclusive: 39.8 µM [inhibitor, single point]",
O=C(c1cc(Br)cn2ccnc12)N1CCN(c2ncccn2)CC1,"inconclusive: 22.4 µM [inhibitor, partial curve, poor fit]",
CCc1cccc(NC(=O)c2cnc(SC)nc2-c2ccccc2)c1,"inconclusive: 39.8 µM [inhibitor, single point]",
CC(C)N1CCC(O)(c2csc(CN3CCc4ccccc4C3)n2)CC1,"inconclusive: 17.8 µM [inhibitor, partial curve]",
COc1cc(=O)n2c(c1C(=O)Nc1ccc(N(C)C)cc1)CCCC2,inactive,
O=C1CN(C(=O)CNc2ccccc2C(=O)Nc2ccc(F)cc2)c2ccccc2N1,"inconclusive: 28.2 µM [inhibitor, single point]",
CCOC(=O)c1sc(Nc2ccccc2)nc1C,"inconclusive: 28.2 µM [inhibitor, single point]",
CCOc1ccc(/C=C/c2nc(C#N)c(NC(C)CC)o2)cc1 (stereo unspecified),,inconclusive: -125% [inhibitor]
